Results as given in publication PMC7155755, “Binding of the Human 14-3-3 Isoforms to Distinct Sites in the Leucine-Rich Repeat Kinase 2” (Frontiers in Neuroscience, 2020).
No constants are given. Whether binding was seen depends on the method and setting. For some of these results: In cells and extracts the contact can be indirect. Some entries that bind do so weakly or less than the wild type. For some of these results: Where a sequence is shown, tags or fusion partners need not be part of it. Square brackets hold non-standard residues; d marks the D form. Ends that are not written are not given here. fluorescein = N-terminal fluorescein label; pS = N[C@@H](COP(=O)(O)O)C(=O)O

Amino acid sequences for entries named in this document (tags omitted).
UniProt Q5S007: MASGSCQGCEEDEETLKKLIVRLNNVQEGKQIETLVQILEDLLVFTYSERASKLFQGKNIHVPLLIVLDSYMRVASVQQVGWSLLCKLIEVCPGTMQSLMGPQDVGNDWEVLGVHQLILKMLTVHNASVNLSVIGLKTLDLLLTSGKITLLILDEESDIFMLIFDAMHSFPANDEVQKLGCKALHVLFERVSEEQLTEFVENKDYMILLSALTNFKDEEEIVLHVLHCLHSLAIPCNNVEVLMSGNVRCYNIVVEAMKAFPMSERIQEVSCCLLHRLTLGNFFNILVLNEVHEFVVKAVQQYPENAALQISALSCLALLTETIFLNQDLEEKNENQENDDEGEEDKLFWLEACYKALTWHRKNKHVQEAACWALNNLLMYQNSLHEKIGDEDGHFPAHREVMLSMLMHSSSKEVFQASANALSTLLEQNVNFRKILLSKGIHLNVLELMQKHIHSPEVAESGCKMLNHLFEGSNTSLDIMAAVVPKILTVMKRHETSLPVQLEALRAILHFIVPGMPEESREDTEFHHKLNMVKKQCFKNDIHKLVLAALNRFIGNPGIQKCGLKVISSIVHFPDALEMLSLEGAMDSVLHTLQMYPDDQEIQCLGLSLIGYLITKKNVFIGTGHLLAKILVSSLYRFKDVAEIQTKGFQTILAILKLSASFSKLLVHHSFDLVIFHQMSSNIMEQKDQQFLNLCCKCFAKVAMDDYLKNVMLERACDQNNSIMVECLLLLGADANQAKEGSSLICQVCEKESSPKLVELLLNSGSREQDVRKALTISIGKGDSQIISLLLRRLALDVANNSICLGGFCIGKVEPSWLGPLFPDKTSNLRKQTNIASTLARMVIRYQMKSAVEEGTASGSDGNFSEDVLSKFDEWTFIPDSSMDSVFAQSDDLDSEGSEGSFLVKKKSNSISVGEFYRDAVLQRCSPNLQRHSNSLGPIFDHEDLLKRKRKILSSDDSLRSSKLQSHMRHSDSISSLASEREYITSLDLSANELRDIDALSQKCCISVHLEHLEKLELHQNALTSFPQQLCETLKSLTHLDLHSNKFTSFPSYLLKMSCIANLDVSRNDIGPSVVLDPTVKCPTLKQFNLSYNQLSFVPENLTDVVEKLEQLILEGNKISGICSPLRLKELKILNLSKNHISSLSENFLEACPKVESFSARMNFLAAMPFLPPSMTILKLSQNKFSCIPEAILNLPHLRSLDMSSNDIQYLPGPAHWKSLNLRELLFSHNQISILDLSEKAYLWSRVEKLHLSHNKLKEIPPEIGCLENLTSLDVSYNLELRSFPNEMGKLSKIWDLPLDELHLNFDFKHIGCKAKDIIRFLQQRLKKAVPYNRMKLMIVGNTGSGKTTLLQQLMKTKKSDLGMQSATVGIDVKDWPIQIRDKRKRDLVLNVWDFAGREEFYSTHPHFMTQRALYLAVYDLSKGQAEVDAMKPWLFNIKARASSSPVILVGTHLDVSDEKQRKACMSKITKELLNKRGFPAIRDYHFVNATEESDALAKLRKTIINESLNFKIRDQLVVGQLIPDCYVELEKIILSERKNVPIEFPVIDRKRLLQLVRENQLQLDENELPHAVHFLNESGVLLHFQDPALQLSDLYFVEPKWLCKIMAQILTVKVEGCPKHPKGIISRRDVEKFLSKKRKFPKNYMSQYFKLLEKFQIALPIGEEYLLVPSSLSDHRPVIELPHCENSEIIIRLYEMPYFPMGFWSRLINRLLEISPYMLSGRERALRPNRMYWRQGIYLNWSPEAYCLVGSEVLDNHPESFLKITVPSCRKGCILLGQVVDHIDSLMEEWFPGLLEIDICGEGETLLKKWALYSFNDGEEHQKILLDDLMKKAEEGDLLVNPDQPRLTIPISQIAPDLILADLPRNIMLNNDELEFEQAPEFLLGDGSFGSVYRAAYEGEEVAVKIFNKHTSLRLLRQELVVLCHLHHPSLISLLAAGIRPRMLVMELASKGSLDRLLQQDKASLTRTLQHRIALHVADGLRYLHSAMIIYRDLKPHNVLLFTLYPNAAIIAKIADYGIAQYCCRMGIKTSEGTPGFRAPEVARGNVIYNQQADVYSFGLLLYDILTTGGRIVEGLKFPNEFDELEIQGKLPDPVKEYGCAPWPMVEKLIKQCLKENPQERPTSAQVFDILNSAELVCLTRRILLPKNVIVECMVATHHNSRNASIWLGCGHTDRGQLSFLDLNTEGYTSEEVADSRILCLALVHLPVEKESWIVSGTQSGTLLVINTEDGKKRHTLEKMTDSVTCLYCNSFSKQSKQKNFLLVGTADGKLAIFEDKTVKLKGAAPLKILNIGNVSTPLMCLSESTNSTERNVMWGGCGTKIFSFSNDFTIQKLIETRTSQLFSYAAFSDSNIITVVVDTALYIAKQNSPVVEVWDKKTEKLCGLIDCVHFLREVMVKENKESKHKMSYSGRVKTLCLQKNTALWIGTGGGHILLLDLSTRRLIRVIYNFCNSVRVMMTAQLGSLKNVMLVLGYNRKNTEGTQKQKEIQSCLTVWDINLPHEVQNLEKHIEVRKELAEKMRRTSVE

T1: R1441C/pS1444 (R1441C (stands in the printed letters))
T1 construct: LRRK2-derived peptide of the Roc domain with the familial PD mutation R1441C, phosphorylated at S1444; source: synthetic peptide (Peps4LS GmbH)
T1 peptide: fluorescein-LFNIKACAS[pS]SPVILVGT

T2: S910
T2 sequence (peptide, fluorescein on the N-terminus): SFLVKKKSNSISVGEFYRD

T3: S933
T3 sequence (peptide, fluorescein on the N-terminus): RCSPNLQRHSNSLGPIFDH

T4: S935
T4 sequence (peptide, fluorescein on the N-terminus): SPNLQRHSNSLGPIF

T5: pS910
T5 sequence (peptide, fluorescein on the N-terminus; phosphoserine at 910): SFLVKKKSNSISVGEFYRD

T6: pS935
T6 sequence (peptide, fluorescein on the N-terminus; phosphoserine at 935): SPNLQRHSNSLGPIF

B1: FLAG-HA-14-3-3 γ (human) (protein, UniProt P61981 1-247)
chain: MVDREQLVQKARLAEQAERYDDMAAAMKNVTELNEPLSNEERNLLSVAYKNVVGARRSSWRVISSIEQKTSADGNEKKIEMVRAYREKIEKELEAVCQDVLSLLDNYLIKNCSETQYESKVFYLKMKGDYYRYLAEVATGEKRATVVESSEKAYSEAHEISKEHMQPTHPIRLGLALNYSVFYYEIQNAPEQACHLAKTAFDDAIAELDTLNEDSYKDSTLIMQLLRDNLTLWTSDQQDDDGGEGNN
B2: FLAG-HA-14-3-3 η (human) (protein, UniProt Q04917 1-246)
chain: MGDREQLLQRARLAEQAERYDDMASAMKAVTELNEPLSNEDRNLLSVAYKNVVGARRSSWRVISSIEQKTMADGNEKKLEKVKAYREKIEKELETVCNDVLSLLDKFLIKNCNDFQYESKVFYLKMKGDYYRYLAEVASGEKKNSVVEASEAAYKEAFEISKEQMQPTHPIRLGLALNFSVFYYEIQNAPEQACLLAKQAFDDAIAELDTLNEDSYKDSTLIMQLLRDNLTLWTSDQQDEEAGEGN
B3: FLAG-HA-14-3-3 θ (human) (protein, UniProt P27348 1-245)
chain: MEKTELIQKAKLAEQAERYDDMATCMKAVTEQGAELSNEERNLLSVAYKNVVGGRRSAWRVISSIEQKTDTSDKKLQLIKDYREKVESELRSICTTVLELLDKYLIANATNPESKVFYLKMKGDYFRYLAEVACGDDRKQTIDNSQGAYQEAFDISKKEMQPTHPIRLGLALNFSVFYYEILNNPELACTLAKTAFDEAIAELDTLNEDSYKDSTLIMQLLRDNLTLWTSDSAGEECDAAEGAEN
B4: human 14-3-3 isoform β (recombinant, MBP tag removed) (natural protein, UniProt P31946 1-246, looked up)
chain: MTMDKSELVQKAKLAEQAERYDDMAAAMKAVTEQGHELSNEERNLLSVAYKNVVGARRSSWRVISSIEQKTERNEKKQQMGKEYREKIEAELQDICNDVLELLDKYLIPNATQPESKVFYLKMKGDYFRYLSEVASGDNKQTTVSNSQQAYQEAFEISKKEMQPTHPIRLGLALNFSVFYYEILNSPEKACSLAKTAFDEAIAELDTLNEESYKDSTLIMQLLRDNLTLWTSENQGDEGDAGEGEN
notes: 14-3-3 beta, human; Expressed from pMAL2CX plasmids; also called 14-3-3β; source: E. coli BL21DE3, purified (maltose-agarose, Factor Xa, anion exchange)
B5: human 14-3-3 isoform ε (recombinant, MBP tag removed) (natural protein, UniProt P62258 1-255, looked up)
chain: MDDREDLVYQAKLAEQAERYDEMVESMKKVAGMDVELTVEERNLLSVAYKNVIGARRASWRIISSIEQKEENKGGEDKLKMIREYRQMVETELKLICCDILDVLDKHLIPAANTGESKVFYYKMKGDYHRYLAEFATGNDRKEAAENSLVAYKAASDIAMTELPPTHPIRLGLALNFSVFYYEILNSPDRACRLAKAAFDDAIAELDTLSEESYKDSTLIMQLLRDNLTLWTSDMQGDGEEQNKEALQDVEDENQ
notes: 14-3-3 epsilon, human; Expressed from pMAL2CX plasmids; also called 14-3-3ε; source: E. coli BL21DE3, purified (maltose-agarose, Factor Xa, anion exchange)
B6: human 14-3-3 isoform ζ (recombinant, MBP tag removed) (natural protein, UniProt P63104 1-245, looked up)
chain: MDKNELVQKAKLAEQAERYDDMAACMKSVTEQGAELSNEERNLLSVAYKNVVGARRSSWRVVSSIEQKTEGAEKKQQMAREYREKIETELRDICNDVLSLLEKFLIPNASQAESKVFYLKMKGDYYRYLAEVAAGDDKKGIVDQSQQAYQEAFEISKKEMQPTHPIRLGLALNFSVFYYEILNSPEKACSLAKTAFDEAIAELDTLSEESYKDSTLIMQLLRDNLTLWTSDTQGDEAEAGEGGEN
notes: 14-3-3 zeta, human; Expressed from pMAL2CX plasmids; also called 14-3-3ζ; source: E. coli BL21DE3, purified (maltose-agarose, Factor Xa, anion exchange)
B7: human 14-3-3 isoform η (recombinant, MBP tag removed) (natural protein, UniProt Q04917 1-246, looked up)
chain: B2 chain
notes: 14-3-3 eta, human; Expressed from pMAL2CX plasmids; also called 14-3-3η; source: E. coli BL21DE3, purified (maltose-agarose, Factor Xa, anion exchange)
B8: human 14-3-3 isoform θ (recombinant, MBP tag removed) (natural protein, UniProt P27348 1-245, looked up)
chain: B3 chain
notes: 14-3-3 theta, human; Expressed from pMAL2CX plasmids; also called 14-3-3θ; source: E. coli BL21DE3, purified (maltose-agarose, Factor Xa, anion exchange)
B9: human 14-3-3 isoform γ (recombinant, MBP tag removed) (protein, UniProt P61981 1-247)
chain: B1 chain

What follows are molecules tested against FLAG-Strep-Strep-tagged full-length LRRK2 wild type (UniProt Q5S007) (assay: pull-down; FSS-LRRK2 co-expressed with HA-FLAG-14-3-3 isoform in HEK293T; LRRK2 captured from the lysate on Strep-Tactin Superflow; washes with 0.5 mM GDP and with 850 mM NaCl, 1% Tween 20; anti-FLAG Western blot).

How did the binding turn out when “FLAG-HA-14-3-3 ε (human) (from UniProt P62258 1-255)” was run?
The binding was “binds”.

“FLAG-HA-14-3-3 β (human) (from UniProt P31946 1-246)” was tested. Which binding did it give?
Its binding is “binds”.

Which binding does the source give for B1 here?
Its binding is “binds”.

B2 was tested. Which binding did it give?
Its binding is “binds”.

With B3 as the molecule, how does the binding read?
The binding was “binds”.

Target: T1, R1441C/pS1444
Experiment: fluorescence polarisation; direct binding; dilution series of 14-3-3 isoform (at least 5 μM down to picomolar) mixed with 1 nM fluorescein-labelled peptide; 20 mM MOPS pH 7, 150 mM NaCl, 0.005% CHAPS; 384-well plates; both purified

Which binding does the source give for B4 here?
The binding was “binds weakly”.

Which binding does the source give for B5 here?
Its binding is “binds weakly”.

With B6 as the molecule, how does the binding read?
Its binding is “binds weakly”.

Which binding does the source give for B7 here?
Its binding is “binds weakly”.

With B8 as the molecule, how does the binding read?
The binding was “binds weakly”.

The molecules below were run against T2, S910 in the same assay as above.

B5 was tested. Which binding did it give?
The binding was “no binding (tested: at least 5 μM)”.

These molecules were tested against T3, S933 in the same assay as above.

For B9, which binding is on record?
The binding was “no binding (tested: at least 5 μM)”.

The molecules below were run against T4, S935 in the same assay as above.

Which binding does the source give for B4 here?
Its binding is “no binding (tested: at least 5 μM)”.

For B5, which binding is on record?
The binding was “no binding (tested: at least 5 μM)”.

With B6 as the molecule, how does the binding read?
The binding was “no binding (tested: at least 5 μM)”.

B7 was tested. Which binding did it give?
The binding was “no binding (tested: at least 5 μM)”.

Which binding does the source give for B8 here?
Its binding is “no binding (tested: at least 5 μM)”.

With B9 as the molecule, how does the binding read?
The binding was “no binding (tested: at least 5 μM)”.

Each molecule was assayed against T5, pS910 in the same assay as above.

With B5 as the molecule, how does the binding read?
Its binding is “no binding (tested: at least 5 μM)”.

What follows are molecules tested against T6, pS935 in the same assay as above.

For B4, which binding is on record?
The binding was “no binding (tested: at least 5 μM)”.

For B5, which binding is on record?
The binding was “no binding (tested: at least 5 μM)”.

B6 was tested. Which binding did it give?
Its binding is “no binding (tested: at least 5 μM)”.

How did the binding turn out when B7 was run?
The binding was “no binding (tested: at least 5 μM)”.

Which binding does the source give for B8 here?
Its binding is “no binding (tested: at least 5 μM)”.

With B9 as the molecule, how does the binding read?
The binding was “no binding (tested: at least 5 μM)”.
